Sequences and labels used below:
B1: GBRAP_52_6190 (protein)
chain: MREEIRRRVEEILELVKAGRLEEARAAARELVASLNDEELELLVEVMRELALEAPLEDSDAVFRLAELIAEAIEEAGKDEVLAEDLLAAVAAALYEKELA
B2: GBRAP_52_6228 (protein)
chain: MREEMEALVREMLALVKAGDLEGARALAREAAETLSDEELELLIDALAELAEAAPLEEAPAFERLAEILAEEFERLGKDEVLVDLLEARVAAALYRREQA
B3: GBRAP_160_4029 (protein)
chain: SAKLEKLKKFAKEEFEEAKELIEGQTAEQRATIVSVTIGQIILEAEELGIDDDEMLDEIDKIGDEAVATILANPDLTEEERKELIKEAEKKVLEAIEKSK
B4: GBRAP_11_2929 (protein)
chain: KKEKLERAAELAREIAERLDAVIESGVVDPADLDEIERLLEELAELVEEYGDEYEKEVAEEARESLRRAREDPETALEHLRDARGWVIELEGLLLLRIEE
B5: GBRAP_160_4655 (protein)
chain: SAELEELLEKIREIFEEALEMMKGETHEQRVAIARVMKGDVILLLEESPSVSDETVDEVDEVMDELVETIEENPDWTDEEIEEKIDEALEEIEEILEEDF
B6: GBRAP_184_5178 (protein)
chain: MIVEKTIKVNNVEEAKEKMEEIKKEVKGKKAELVLIVEAEKFTVEIVETILSILKKMKEEGYVTKITLHLDGEMSEEVIDTAVKLAKEAGVNLVLALDEE
B7: GBRAP_64_6492 (protein)
chain: MEELKKERDEELEKAIEHLKKAAELNEEKKEEYLKLADKLEKAKELSPEEAADVLAEIAKELNKLLEEEKDNEETKEELSLALYHVSAALYLEAEIEELE
B8: GBRAP_160_4355 (protein)
chain: SETVEALIKRIREVTDEVIAAIDTESVEEVRVIAAGEFGAVFMEAAEDPRMSDEMEDVILQGRDDILAFLTANADASVAEIKAGIRAITDATIARLKALA
B9: GBRAP_160_4622 (protein)
chain: SEKLKKALELVEEARDEVLSLIPELSTEEFAHALEAEFGSVILYLLEEGYISEETEDEMMEVVDEAVAHLLAHPDLSPEERRALVEETAEEIKEIIKKNS
B10: GBRAP_159_3957 (protein)
chain: MEEVLEELREELEKLGASEEQIEAALEAVELAYEGEDAGSIAAHLVSMHTVLGASTEQILVVLKHLPEELRKEVAELLAEVARELGDEELAEALEELLEE
B11: GBRAP_128_3195 (protein)
chain: VSPAAVAALRALAERVIATKSDADIDAFAAAVAAALKAGEITLDELEEIVAALGEGLDADTLARVADALRAALADVGADARATALGVLGEKIYEKEEEAE
B12: GBRAP_160_4265 (protein)
chain: SEETKKLIEDLDKDKEEILELVDEISSEELKTFAVVSLGSHLMEAIDLGVVTDEEEDELLKIIDDLEKELTANKNAPKEVKKEIITKHYEKFKELLKKSK
B13: GBRAP_196_5416 (protein)
chain: KYLEEIKELEKESEEEVKDIELSDWTIVVNFTPENLEEEAEKTAEIAKDLGNPEIVIVHDGTLEEMLEALKLLREKLKEKGVVSKISVDSRAREEAEEKA
B14: GBRAP_74_6545 (protein)
chain: NAAEADAIIATLETGSREERRAALESIPLDFSDEDLERLLLAVARLAIEAAEAGDEELLEAATEALVRLYDRLAGKPLSPETDAALVAALAAAVEAEKKR
B15: GBRAP_184_5239 (protein)
chain: MVLERTIKAENEEELREKMKEVMEEAEKKGAKVRLLIEVEKLTREKAETLAEMIKEMAAKGLLELVGVVSSEPISEEIVDLLVEAADEAGVKLVIAEPEI
B16: GBRAP_55_6431 (protein)
chain: SEDDEDTRLAAETLLELAVANVDDPEKLAEAVDRLMEVAKDKEVTATASPLPKEEAEKIYEKLKKELEKAAKEHGLEVKVELIYDEKTGTASIKVTVKPK
B17: GBRAP_160_4718 (protein)
chain: SEAVEEAIREVEEALREVAALRDEMTADELANLVETLIGSTLMELLDEGKVNDELEETLREIADRAAAVVRATYDAPREVFEAALEEVAREGRERLERLS
B18: GBRAP_160_4787 (protein)
chain: MERVRKASELLREALEEALELSEGETPEERVNIFDVEIGAAIMELRELGLLNDEEEEVLAEVRDRLVAEIRANPDLTPEELRALAEEAVEEFERRLKELE
B19: GBRAP_166_4917 (protein)
chain: SMEERVEEAKKRLEKVIEEGKADPSMTDEQITVEMAYELAEILEEIDDREEKLAVVRMGLELAKENGLDPLRLARLTVSLSDFDDEERDEVDEIAEEILK
B20: GBRAP_125_2993 (protein)
chain: SEEEDLADLARLLRALGFDDEDVAEAVELARRHGIRGTLYAALKALGWDELADLVAQLSEEETREALRRVAAELAARPDLTPEEVRALLLEVLRAILAER
B21: GBRAP_11_2829 (protein)
chain: KKEKLKELAEKAKAVADQLAALIASGAPTQAELDALLAKAKALLKETKEFGDEALAKEAEILVEEIEAAIADPATRQQHLQEALAAARVLEGQYLLLYEE
B22: GBRAP_95_7034 (protein)
chain: EDDKLALESALEVAVAAAELGDEEAAARALKEALELLKKAGKVKLDPELLKETIEVIREVGVKKLPKEEVLELLELLKESAETEEVKKLAEEAIEEVKKR
B23: GBRAP_184_5252 (protein)
chain: KVLERTIEAENVEELKEKMAEINKEALATGADVIIELKAKEVTKEMIEALFNSIKELKAKGYTGKVTVGIDADLSEEMIDYAIELADEAGVNLVVALPEE
B24: GBRAP_184_5100 (protein)
chain: ATYEAVVEAATAEEAIAQLEEAVAEAAAAGAALNVLLKGEGLSAEELVEIVRALGAAAAAAGIPRVTLGIDTPVTEEDADKLIAAADAAGIRLVLALSEE
B25: GBRAP_137_3622 (protein)
chain: KKVTITFYEEDGVAIAEITADTSVDKEKVLALVEEVAEEHGVQLVEALVEPDEPLVLYLVGTPEQVIAAVKDLIERLKSELGIEVVLESEGAEELVEEVK
B26: GBRAP_74_6523 (protein)
chain: MEEKLKELKEAAEAGDVEKAVELLREIIETGDLETIEEAARIMVEFVEKNLEKLTPEELELLADALAELADELMERGGDSEVINAVATAAVRLEEALAAK
B27: GBRAP_160_4771 (protein)
chain: SEELKKLKKEVKEIFEEYIKLLKEVPQEEALTIVNGALGEVLMEVMSSDAVSDELEEEIGKILDEAEKEAEKNKDAPVEVFIKILKEAKEKILELIEKEI
B28: GBRAP_184_5236 (protein)
chain: KTLDVTVKAKNEEELKEKLEEVRKKAEEEGAKVNLIVEVEELTEEKVKVLTEMIKEMAKKGLLTLVEVESSTPIKEEHIDKLVEAADEAGVKLVIAEPDE
B29: GBRAP_184_5261 (protein)
chain: MVLERTIEAKNVEELRAKLAEVKAEALATGADVIIHLKVEKLTKEMIDALFAEIEALRAAGYTGKVTIGIDAEVTEEMVDYILEKADEAGVNVTIALSEE

This is an account of results in the supplement of paper PMC12632987.

Over roughly 4,500 sequences, “median log2 fold change of GCK-ALFA target abundance (FLAG IP / Myc IP barcode read proportion)” has its median near 0.078; the lowest 2% begin near -0.6. The list shows a part of the results.

GABARAP, O95166, sequence (O95166 whole entry, the tested form may be a part): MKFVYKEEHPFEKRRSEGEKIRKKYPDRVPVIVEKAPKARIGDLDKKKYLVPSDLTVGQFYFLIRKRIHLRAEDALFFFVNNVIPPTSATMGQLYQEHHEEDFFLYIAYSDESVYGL

This assay addresses GABARAP, O95166. The experiment in a line: median log2 fold change of GCK-ALFA target abundance (FLAG IP / Myc IP barcode read proportion) (log2 ratio); each designed protein is fused to an ALFA-tag nanobody in HEK293 cells to bring the named protein to FLAG-tagged glucokinase (GCK); Myc marks an untargeted standard; higher = target protein stabilised (more abundant). Particulars: target protein: 3xFLAG-MCP-GCK-ALFA reporter; HEK293 landing pad (RPLP). Put shortly: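 An ALFA-nanobody-fused binder library was recombined into HEK293 landing-pad cells and induced with 2 μg mL^−1 doxycycline. Cells were transfected with a plasmid expressing a FLAG-tagged target and a Myc-tagged standard. After 48 h, lysates underwent anti-FLAG and anti-Myc immunoprecipitation, and circular RNA barcodes were reverse transcribed, amplified and sequenced. Target abundance is the per-binder median log2 ratio of FLAG to Myc barcode read proportions. Barcodes needed ≥10^−7 proportion in both replicates, binders ≥3 barcodes per replicate, and a 10^−6 pseudocount was added; the two replicates were pooled.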
As to B1, the “median log2 fold change” value amounted to 0.00763.

Regarding B2, the “median log2 fold change” value is -0.0188.

For the molecule B3, the “median log2 fold change” value was -0.0877. B4: the “median log2 fold change” value was 0.221. The value for B5 was -0.612; that for B6 was 0.209.

For the molecule B7, the “median log2 fold change” value is 0.0632.

For B8, the “median log2 fold change” value came to 0.143. In the case of B9 it was 0.0582; in that of B10, -0.249. In the case of B11 it was 0.27; in that of B12, -0.385; in that of B13, 0.451. As to B14, the “median log2 fold change” value is -0.222. In the case of B15, the “median log2 fold change” value came out at 0.163. In the case of B16 it was 0.23; in that of B17, 0.095. In the case of B18 it was 0.0992; in that of B19, 0.0707. The value for B20 was 0.00558; that for B21 was 0.197. As to B22, the “median log2 fold change” value turned out to be 0.352. As for B23, the “median log2 fold change” value is -0.0723. As for B24, the “median log2 fold change” value is -0.0775. Regarding B25, the “median log2 fold change” value was -0.288. The value for B26 was 0.153; that for B27 was -0.271. In the case of B28 it was -0.0251.

B29: the “median log2 fold change” value worked out at 0.25.
